# Measurements taken from the supplement of paper PMC3334620.
# In all, about 33,000 sequences were measured (“E-score (-0.5 to 0.5)”: median about -0.012, highest 2% from about 0.27 on). Some of the results follow.
# Biological target: T1, Vhr1 (UniProt P40522)
# T1 sequence: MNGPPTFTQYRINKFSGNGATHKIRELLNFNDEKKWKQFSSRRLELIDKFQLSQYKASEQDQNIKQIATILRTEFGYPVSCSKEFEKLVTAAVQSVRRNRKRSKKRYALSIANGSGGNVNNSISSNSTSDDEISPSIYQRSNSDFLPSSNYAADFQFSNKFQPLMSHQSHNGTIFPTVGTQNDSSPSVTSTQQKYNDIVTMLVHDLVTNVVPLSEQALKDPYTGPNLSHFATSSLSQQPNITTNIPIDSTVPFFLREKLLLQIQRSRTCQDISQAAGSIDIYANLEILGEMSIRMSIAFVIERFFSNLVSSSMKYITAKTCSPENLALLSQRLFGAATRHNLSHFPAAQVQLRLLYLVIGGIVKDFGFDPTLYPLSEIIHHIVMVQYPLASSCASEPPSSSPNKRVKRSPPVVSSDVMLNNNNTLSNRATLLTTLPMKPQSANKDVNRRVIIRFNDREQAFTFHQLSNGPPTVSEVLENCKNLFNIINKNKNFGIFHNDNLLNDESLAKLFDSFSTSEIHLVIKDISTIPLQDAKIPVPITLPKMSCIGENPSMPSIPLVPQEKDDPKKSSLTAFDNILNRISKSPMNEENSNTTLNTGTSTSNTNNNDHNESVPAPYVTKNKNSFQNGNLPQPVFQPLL
# Experiment: PBM E-score (8-mer binding enrichment) (E-score (-0.5 to 0.5)); higher = stronger / more preferred TF binding; most listed sequences are background and not binding sites
# Details: protein concentration: 200 nM; construct: GST-full length
# Protocol: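 Universal 'all 10-mer' protein binding microarrays (Agilent AMADID 015681) probed with GST-tagged S. cerevisiae TFs (full-length or DBD) made by in vitro transcription/translation (PURExpress), about 100-200 nM. Bound TF was detected with fluorescent anti-GST. Each ungapped 8-mer (which stands for itself and its reverse complement) is scored by the PBM enrichment score (E-score), a modified Wilcoxon-Mann-Whitney statistic from -0.5 to +0.5, computed with the Universal PBM Analysis Suite. Scale: above 0.35 generally sequence-specific binding.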
row,Sequence,PBM E-score
1,AATCTTCC,-0.0898
2,ATGTTAGG,-0.0862
3,AGAAGTCT,-0.247
4,CCCGTTCC,0.0146
5,AAACTTAA,-0.0817
6,AGTTAGGG,-0.127
7,ATTACGAC,-0.00849
8,GAGTCCCA,0.249
9,AGGGTTGA,0.12
10,AAATCCTT,-0.265
11,CACCGGTC,-0.149
12,CAGTAGGA,-0.0712
13,TACCGGCA,0.0165
14,ATAACAGA,0.0646
15,ACCGACTG,0.177
16,AACAAAAC,-0.0325
17,CACACGCG,0.21
18,CCGGACGA,0.128
19,CCTTCAGA,-0.187
20,AGACCGGG,0.0202
21,CCCGGGCA,0.215
22,CTCGAATC,-0.0369

row,Sequence,PBM E-score
1,AGCGCTAG,-0.148
2,CTACCTCA,-0.00038
3,CATGTCCG,-0.284
4,ACGCAAGG,-0.037
5,AACAGGTT,-0.0643
6,AGTTCATG,0.195
7,CAATCAGC,0.193
8,ATGACGTC,0.00796
9,AATTGATG,0.147
10,CCCAGCGC,0.0578
11,AATTGCAA,-0.176
12,CATGCGCC,0.00622
13,AGACATGG,0.192
14,GTTTGTGA,-0.0971
15,AGACGTGA,0.112
16,CGTCATGC,0.0219
17,ATCAATGG,-0.00322
18,CCGATAGG,0.0123
19,AACTGAGC,-0.115
20,AAGGTCTC,-0.244
21,AACCCCTG,-0.104
22,TTCGCAAA,0.0604

row,Sequence,PBM E-score
1,GCAACGAA,-0.0344
2,ATCTAAAC,-0.19
3,AGTTGATC,0.0148
4,ACTGCCAA,0.175
5,AGGAGAAT,-0.0556
6,AGAATATC,-0.0545
7,ACGAACGA,0.00214
8,AGTAGGCG,-0.036
9,CTATAGTA,0.0768
10,CAACTCGA,0.0405
11,ACGACTGA,0.123
12,CGCCATGA,0.171
13,TACTGTAA,-0.00637
14,ATTGTCTC,-0.0333
15,TGAAACCA,0.0959
16,ATCCTTGA,-0.0054
17,CGAGATGC,-0.00486
18,ACCCTCAA,-0.107
19,GGGACCCA,0.0966
20,AATTTCCG,-0.108
21,ATATCAGG,-0.239
22,ATTTCAAA,-0.276

row,Sequence,PBM E-score
1,CACGCGCA,0.0157
2,AATAGCTG,0.0192
3,GGTGGGAA,0.04
4,CCTCCGCC,-0.106
5,GAATGCGA,0.0442
6,CTATCCAG,-0.116
7,AGTAGCTA,0.00862
8,AGCATACA,-0.0103
9,GGTAGCAC,-0.107
10,GTTTCGGA,-0.0898
11,AGGCCGTG,0.0612
12,AAGTAATT,-0.197
13,ATTATTTC,-0.00699
14,CCTCCCAG,-0.166
15,CACAACGC,0.134
16,AGCCTTAT,-0.0675
17,GGGATCAA,-0.109
18,GACGGACA,0.0577
19,CGGTGGAG,0.0843
20,CTCAAGCC,0.00694
